From PMC9507357
Results are given in words; binding and its absence hold for the method and conditions named. Binding seen in cells or lysates may run through a third protein. Some binding calls cover weakened binding; strength is not graded here. Tags and fused reporters may be left off the sequences shown.

Biological target: NCoR (nuclear receptor co-repressor), exogenous (transfected; tag not given), O75376
Test: co-IP; Co-IP combined with Re-IP: MDA-MB-231 cells transfected with indicated plasmids, anti-FLAG agarose, elution with FLAG peptide, re-immunoprecipitation with anti-MYC or normal IgG, immunoblot
Conditions: remark: other sources report otherwise

binding: binds
B1: HDAC3 (histone deacetylase 3), exogenous (transfected; tag not told in the text), O15379 1-428 (enzyme)
chain: MAKTVAYFYDPDVGNFHYGAGHPMKPHRLALTHSLVLHYGLYKKMIVFKPYQASQHDMCRFHSEDYIDFLQRVSPTNMQGFTKSLNAFNVGDDCPVFPGLFEFCSRYTGASLQGATQLNNKICDIAINWAGGLHHAKKFEASGFCYVNDIVIGILELLKYHPRVLYIDIDIHHGDGVQEAFYLTDRVMTVSFHKYGNYFFPGTGDMYEVGAESGRYYCLNVPLRDGIDDQSYKHLFQPVINQVVDFYQPTCIVLQCGADSLGCDRLGCFNLSIRGHGECVEYVKSFNIPLLVLGGGGYTVRNVARCWTYETSLLVEEAISEELPYSEYFEYFAPDFTLHPDVSTRIENQNSRQYLDQIRQTIFENLKMLNHAPSVQIHDVPADLLTYDRTDEADAEERGPEENYSRPEAPNEFYDGDHDNDKESDVEI
